# The list shows a part of the results. The energies were worked out here from pooled read counts, against the library average; single values are noisy.
# Target: T1, Pho4 (S. cerevisiae) (UniProt P07270)
# T1 sequence: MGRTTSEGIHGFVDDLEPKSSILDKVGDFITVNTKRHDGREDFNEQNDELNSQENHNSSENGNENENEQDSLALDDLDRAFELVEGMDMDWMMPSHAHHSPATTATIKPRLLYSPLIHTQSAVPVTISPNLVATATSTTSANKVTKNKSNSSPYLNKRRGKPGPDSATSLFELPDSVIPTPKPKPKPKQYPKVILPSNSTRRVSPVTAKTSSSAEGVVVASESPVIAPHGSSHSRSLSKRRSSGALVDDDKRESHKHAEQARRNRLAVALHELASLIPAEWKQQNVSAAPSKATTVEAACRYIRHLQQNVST
# Experiment: relative binding free energy (BET-seq); higher = weaker binding
# Conditions: reference: library average
row,Sequence,relative binding free energy
1,TACTACACGTGGGTGG,-0.07 kcal/mol
2,TGCGGCACGTGGTTGC,-0.09 kcal/mol
3,AGAGTCACGTGATTCG,0.28 kcal/mol
4,GGTATCACGTGTTAGT,0.11 kcal/mol
5,TTCGTCACGTGAGATG,0.34 kcal/mol
6,CAGGTCACGTGGGGCA,-0.09 kcal/mol
7,AAGGTCACGTGCGGGC,0.01 kcal/mol
8,ATGAGCACGTGTTTTT,-0.06 kcal/mol
9,CGGGGCACGTGAGTAT,0.05 kcal/mol
10,TTGAACACGTGGTTTT,0.02 kcal/mol
11,TGTTTCACGTGTGTGG,0.32 kcal/mol
12,TGAGACACGTGTGCTT,0.15 kcal/mol
13,ATTACCACGTGTGGGG,0 kcal/mol
14,TTGTACACGTGTTTGG,0.04 kcal/mol
15,AATGTCACGTGTATCT,0.18 kcal/mol
16,CTAGGCACGTGGTCGT,-0.28 kcal/mol
17,TAGTTCACGTGCGGGT,0.22 kcal/mol
18,TGGATCACGTGTTCAT,0.12 kcal/mol
19,TGGGTCACGTGACTGG,0.23 kcal/mol
20,ATAAGCACGTGTTTTC,-0.05 kcal/mol
21,AGGGACACGTGTAATT,0.18 kcal/mol

row,Sequence,relative binding free energy
1,TTTGGCACGTGGAGCT,-0.1 kcal/mol
2,TAAGTCACGTGGAAAG,0.25 kcal/mol
3,AGTAGCACGTGCGTTA,-0.04 kcal/mol
4,AGTATCACGTGCTTTG,-0.04 kcal/mol
5,CGAGACACGTGGGGTT,-0.11 kcal/mol
6,GGGATCACGTGATATA,0.37 kcal/mol
7,CGTTACACGTGAGCGG,0.27 kcal/mol
8,AACGTCACGTGTTGGA,0.22 kcal/mol
9,GATTGCACGTGATGTA,0.24 kcal/mol
10,TTGTTCACGTGTTGCC,0.35 kcal/mol
11,GCGTGCACGTGGTTTG,-0.07 kcal/mol
12,GAGGGCACGTGTGGCT,-0.01 kcal/mol
13,GTAGACACGTGTTGTT,0.03 kcal/mol
14,GCTCTCACGTGGTTTG,0.31 kcal/mol
15,GGTTTCACGTGACATT,0.39 kcal/mol
16,TAGTGCACGTGCGGTG,-0.03 kcal/mol
17,AATATCACGTGGTTAT,0.02 kcal/mol
18,TGTTGCACGTGAGGAT,0.22 kcal/mol
19,TTGATCACGTGGTGCT,0.08 kcal/mol
20,TGTATCACGTGAGGGC,0.29 kcal/mol
21,CGGTTCACGTGGTTTA,0.22 kcal/mol

row,Sequence,relative binding free energy
1,ATGTACACGTGTGAAT,0.04 kcal/mol
2,GAATGCACGTGGTTGT,0.04 kcal/mol
3,TGTGGCACGTGGATCA,-0.14 kcal/mol
4,TAAGCCACGTGGGTGG,-0.33 kcal/mol
5,TGCGGCACGTGAAGAG,0.17 kcal/mol
6,GTCTACACGTGGGCTG,0.04 kcal/mol
7,CGCGGCACGTGGGCAG,-0.33 kcal/mol
8,GTTTCCACGTGGCTGT,0.03 kcal/mol
9,GTGAGCACGTGTAGGG,-0.11 kcal/mol
10,CTGGTCACGTGGCGGG,0.01 kcal/mol
11,AGAGGCACGTGGTTGG,-0.16 kcal/mol
12,GCGTTCACGTGACGGT,0.46 kcal/mol
13,ATTGGCACGTGAGCTT,-0.04 kcal/mol
14,TATTTCACGTGAGAAT,0.3 kcal/mol
15,TAATGCACGTGTGCTT,-0.02 kcal/mol
16,TCGGGCACGTGGTCTA,-0.17 kcal/mol
17,CTAGTCACGTGTAGGT,0.11 kcal/mol
18,GGGAACACGTGGATAT,0.17 kcal/mol
19,TAGGGCACGTGGGGCA,-0.17 kcal/mol
20,TTACTCACGTGGCTGT,0.05 kcal/mol
21,AATATCACGTGTAGGA,0.01 kcal/mol
